The text below walks through data of PubChem BioAssay (NCATS).

This assay is described as follows: qHTS Assay for Lipid Storage Modulators (AID 1519). The settings on record: Drosophila S3 cells, BODIPY lipid droplet/cell ratio, laser cytometry, cells loaded with oleic acid. In a few lines: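 Cells seeded at 5,000 per well were treated with compounds over a concentration series and loaded with oleic acid (400 uM, as added). Lipid droplet fluorescence (488 nm excitation, 500-530 nm channel) was read by laser-scanning cytometry and normalized to 20 uM Triacsin C.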
A general note: qHTS replaces the single test concentration by a dilution series.

Setting [1] is: measured here: cell count channel max response.
Where [2] appears, read: measured here: cell number channel AC50.
Setting [3] is: measured here: lipid channel max response.
The mark [4] stands for this setting: measured here: lipid (BODIPY) channel AC50.

Some of the results follow. Shown are side measurements of this screen, not its main read-out; they come without a call. The list favours compounds with an active or inconclusive main result. The note in brackets gives the kind of curve behind each potency; many fits are weak.
Tags give direction and shape of the fitted curve.

As usually defined, the AC50 is the midpoint of the concentration-response curve, whichever way the signal moves. With `CCC(=O)N[C@@H]1CCc2cccc(OC)c2C1`, the max response reads like this: under setting [1], 58.6%; under setting [3], 77.1%. Besides, the AC50 under setting [2] is 14100 nM [rising, partial curve].
For `N#CCCn1c(=O)c(-c2cccs2)nc2cnc(Oc3cccc(Cl)c3)nc21`, the max response is -7.04% under setting [1] and -11.1% under setting [3]. In addition, the concentration at half-maximal activity (AC50) under setting [2] is 631 nM [rising, full curve, poor fit].
Regarding `COc1ncc2nc(C)c(=O)n(CCc3ccccc3)c2n1`, the max response under setting [1] came out at 8.89% and the max response under setting [3] stood at 13%. For the same compound, the half-maximal activity concentration (AC50) under setting [4] is 141 nM [rising, full curve].
Take `O=C1C(=O)N(Cc2ccc(Cl)c(Cl)c2)c2ccccc21`: the max response by setting is: under setting [1], 13.9%; under setting [3], 4.36%. For the same compound, the AC50 under setting [4] is 3980 nM [rising, single point].
As for `COc1cccc(Cn2c(=O)cnc3cnc(Nc4cccc(OC)c4)nc32)c1`, the max response reads like this: under setting [1], 1.04%; under setting [3], 0.007%. In addition, the AC50 under setting [4] was 56.2 nM [rising, full curve, poor fit].
Take `COc1ccc(-c2nc3cnc(OC)nc3n(Cc3cccc(OC)c3)c2=O)cc1`: the max response by setting is: under setting [1], 21.5%; under setting [3], 32.8%. Under setting [4], the AC50 is 112 nM [rising, full curve].
Turning to `O=C(Oc1ccccc1)N1CCC2(CCCN(c3cccc(-c4ccccc4)c3)C2)CC1`, the max response reads like this: under setting [1], 21.4%; under setting [3], -24.4%. Moreover, the AC50 under setting [4] is 112 nM [rising, full curve, poor fit].
Consider `COc1ccc(Oc2ncc3nc(C)c(=O)n(C)c3n2)cc1`, for which the max response under setting [1] is 26.7% and the max response under setting [3] is 39.7%. The AC50 under setting [4] is 141 nM [rising, full curve].
Regarding `c1ccc(CNc2ccnc(-c3ccc4c(c3)OCO4)n2)cc1`, the max response was -6.38% under setting [1] and -0.434% under setting [3]. Moreover, the concentration at half-maximal activity (AC50) under setting [4] was 1000 nM [rising, single point].
For the compound `O=c1c(-c2ccccc2)nc2cnc(N3CCNCC3)nc2n1Cc1cccs1`, the max response stood at 10% under setting [1] and 17.3% under setting [3]. The AC50 under setting [4] was 1580 nM [rising, full curve, poor fit].
